± gives the standard deviation of the averaged measurements. Over roughly 33,000 sequences, “E-score (dimensionless, -0.5 to 0.5)” has its median near -0.049; the highest 2% begin near 0.37. Some of the results follow.
system: T1, PmTbr T-box DNA-binding domain (GST fusion); experiment: PBM E-score of 8-mer (E-score (dimensionless, -0.5 to 0.5)); Tbr is Tbrain of the sea star Patiria miniata (Pm) or the sea urchin Strongylocentrotus purpuratus (Sp); higher = stronger binding preference; most listed sequences are background and not binding sites; details: the construct has about 5 more residues each side
T1 sequence: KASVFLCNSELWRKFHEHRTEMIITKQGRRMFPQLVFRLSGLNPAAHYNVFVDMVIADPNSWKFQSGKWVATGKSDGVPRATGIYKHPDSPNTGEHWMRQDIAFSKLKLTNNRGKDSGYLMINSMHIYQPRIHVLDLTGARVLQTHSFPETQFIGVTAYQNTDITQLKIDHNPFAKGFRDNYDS
Protocol: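 Universal protein-binding microarray (Agilent AMADID 016060, 60-bp probes with a 35-bp variable region) incubated with 200 nM GST-fused Patiria miniata Tbr T-box DNA-binding domain (residues 272-466) in PBS pH 7.5. Scored for every ungapped 8-mer (given with its reverse complement) by the Universal PBM Analysis Suite as E-score (modified Wilcoxon-Mann-Whitney enrichment, range -0.5 to 0.5; >0.45 counts as bound) and Z-score of median probe intensity. Two replicate arrays (datasets 1 and 2).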

Sequence	PBM E-score of 8-mer
GTCAATGA	0.0412 ± 0.063
AAAATGCG	-0.0163 ± 0.0012
CAAGGCGC	0.2195 ± 0.0016
GGGAAAGA	-0.152 ± 0.053
GGGTGCAA	0.31 ± 0.0046
TAAAGATA	-0.157 ± 0.049
CTTCACTA	0.0129 ± 0.037
TAGTGCCA	0.249 ± 0.0097
ACGCTAGA	-0.00085 ± 0.045
ACCGAGGA	-0.0718 ± 0.0034
AGTATGTA	-0.113 ± 0.014
ATCAAGTA	-0.121 ± 0.063
TAGTAAAA	-0.0773 ± 0.045
CCATACGA	-0.0968 ± 0.053
ACAATCTG	-0.11 ± 0.014
TATCCTAA	-0.0501 ± 0.021
AAGCAGTC	-0.167 ± 0.023
ACACCGGC	0.193 ± 0.027
CGACTGTA	-0.111 ± 0.014
GAATTGCA	0.0307 ± 0.043
CCAGCTCC	-0.183 ± 0.017
ATACCTAC	-0.172 ± 0.0048
GATGACCC	0.111 ± 0.006
ACTCGAAC	-0.0874 ± 0.031
AGACTGCG	0.00438 ± 0.053

Sequence	PBM E-score of 8-mer
CTATGGAG	-0.138 ± 0.041
TATTCTGA	-0.0175 ± 0.054
AAGTTTAC	-0.00735 ± 0.051
ATAGTTTA	-0.3 ± 0.017
CTAGACGA	0.00336 ± 0.051
GCTTGAGA	-0.103 ± 0.046
AGTACGGC	-0.144 ± 0.057
AGACTGGG	-0.261 ± 0.012
ACACCGGG	0.132 ± 0.028
ATAAAGCA	-0.067 ± 0.091
ATATCAAG	-0.0732 ± 0.11
AGATGTAA	0.00792 ± 0.061
CCCCTGAG	-0.0747 ± 0.052
CATACAGG	-0.17 ± 0.0088
ACTGAGGG	0.0207 ± 0.066
CTATCATC	0.0965 ± 0.015
CGGTCCAA	-0.148 ± 0.0024
AGGAACTA	-0.0348 ± 0.016
ATAGGAAG	-0.24 ± 0.0037
ATGCCAGG	0.0213 ± 0.052
CGTGATCA	0.115 ± 0.0037
AATCGTTA	0.0624 ± 0.03
TCCACGGA	-0.0781 ± 0.017
ATATGCCC	-0.143 ± 0.0056
GGCGCTGA	0.1761 ± 0.0012

Sequence	PBM E-score of 8-mer
ATCATGGC	0.112 ± 0.074
ACATGTCG	0.198 ± 0.011
GTTTTCAA	-0.0894 ± 0.055
GGAGCATA	-0.0893 ± 0.017
ACTTGGTC	-0.0302 ± 0.035
ACTATGGG	0.0361 ± 0.038
CCGCCACG	0.101 ± 0.11
CACCGTTC	0.0184 ± 0.018
AGTCGTCC	-0.273 ± 0.017
AAGCATAC	-0.113 ± 0.017
ACTGCCAC	0.221 ± 0.031
GAAGTTTA	-0.0984 ± 0.028
AGTCGGCG	-0.0177 ± 0.013
ACTCGTGC	0.231 ± 0.026
GAGGGATC	0.0247 ± 0.014
GACGACTC	-0.0256 ± 0.066
CCCAACGA	-0.174 ± 0.0069
ACCTTAGT	-0.0859 ± 0.028
CCAACGCA	-0.0864 ± 0.045
TAAGCAGA	-0.0743 ± 0.051
AGACCTCA	0.0571 ± 0.053
AGGACTCA	-0.12 ± 0.047
AACCTGAC	0.111 ± 0.026
AGGTACTC	-0.00173 ± 0.059
ACCTGCGG	0.151 ± 0.046

Sequence	PBM E-score of 8-mer
CGCATGCC	-0.192 ± 0.061
CACGATCA	0.148 ± 0.016
ATGGCTCA	-0.0311 ± 0.0022
AATGTCCT	-0.216 ± 0.043
AGCTGAAA	-0.105 ± 0.11
GTAGGCCA	-0.196 ± 0.081
CAGTGGCG	0.231 ± 0.056
AGATGCTC	-0.155 ± 0.039
ACGTGTTG	0.3744 ± 0.0004
CGTCCCAG	-0.151 ± 0.0033
CGACATAA	-0.0322 ± 0.096
GAAGTTGC	0.184 ± 0.041
ACCGATGG	-0.16 ± 0.041
AGCTATAC	-0.177 ± 0.053
CTCGCAGC	0.176 ± 0.0099
GATAACAA	0.212 ± 0.042
GATGGCCC	-0.138 ± 0.0089
GAAGACTA	-0.157 ± 0.029
GCTACTTA	-0.129 ± 0.039
ATGGCGTA	-0.242 ± 0.01
ACTAACGG	0.192 ± 0.005
AGGGTGGC	0.191 ± 0.011
CGCTCGAG	-0.137 ± 0.039
CATGGTGA	0.131 ± 0.041
GCGTCCCC	-0.124 ± 0.051

Sequence	PBM E-score of 8-mer
CTACTCCA	-0.0451 ± 0.062
GACTGAGA	-0.181 ± 0.085
ACTCGCCT	-0.00632 ± 0.066
ACCGACCT	0.0799 ± 0.086
CTCCACGC	-0.00754 ± 0.15
CCCTAGTA	-0.0951 ± 0.035
CTACCTAA	-0.166 ± 0.089
GACTCTGC	-0.224 ± 0.09
GGAATGTA	-0.207 ± 0.05
AAAACTAC	0.0477 ± 0.035
AGCTGGAC	-0.109 ± 0.031
GGGCCAAC	-0.007 ± 0.099
CTTTGGCA	0.288 ± 0.017
AAAAGGAA	-0.00011 ± 0.062
AACAGGAT	-0.142 ± 0.096
CCAATGTC	0.088 ± 0.055
ACCGGACC	-0.138 ± 0.016
CATGGCTC	-0.0856 ± 0.1
GGTCAAAA	-0.179 ± 0.065
CCCAGGGC	-0.0441 ± 0.013
CATGTGAA	0.179 ± 0.049
CTCCAGAG	-0.161 ± 0.025
GTGACATA	0.321 ± 0.033
AGGACTGG	-0.337 ± 0.007
CCTCCTAG	-0.052 ± 0.055

Sequence	PBM E-score of 8-mer
GGGTGTAA	0.385 ± 0.013
AATTCAAA	-0.153 ± 0.042
ACCAAGGG	-0.0317 ± 0.00022
AGGGTGCC	0.296 ± 0.026
GGTCGCGA	0.335 ± 0.011
ATAGTCAA	-0.00619 ± 0.018
ACGGACAT	-0.0384 ± 0.04
CACAAAGG	-0.114 ± 0.041
AGCAGACA	0.0964 ± 0.024
CCACAGCC	-0.181 ± 0.043
CCCAGTCC	-0.213 ± 0.022
CCCACTGA	-0.0919 ± 0.041
ATCACAAT	0.187 ± 0.019
CACGGAAA	0.0541 ± 0.056
TAGATGGA	-0.227 ± 0.037
GAGTCCGC	-0.0521 ± 0.036
GTAGAATA	-0.203 ± 0.031
GGACGCAC	-0.0479 ± 0.052
ACGTGACG	0.346 ± 0.0083
CTAGCAAC	0.188 ± 0.06
TCCACGCA	0.0988 ± 0.077
ACACGAAT	-0.0114 ± 0.011
GTATCGGA	-0.133 ± 0.026
CAGCTCGG	-0.115 ± 0.041
AACCTAAT	-0.081 ± 0.065

Sequence	PBM E-score of 8-mer
AAGCCAGA	-0.334 ± 0.072
AATATGAA	-0.0309 ± 0.092
CTGCCTGA	-0.251 ± 0.011
ACTACCGA	-0.135 ± 0.062
ATTCCGCG	0.0745 ± 0.0039
GCGCCCGA	0.0762 ± 0.062
AGTTTTAG	0.0632 ± 0.01
GTTACTTA	-0.0229 ± 0.099
AAGACGCA	0.0336 ± 0.048
TAGCGACA	0.303 ± 0.015
CACCAGAG	0.189 ± 0.034
AAATAAGG	-0.132 ± 0.096
AGCTCCAC	0.051 ± 0.068
ACACGATG	0.193 ± 0.035
AGGAAGAC	-0.0858 ± 0.05
ACGCCTCA	0.31 ± 0.0035
ATCGGCGC	0.092 ± 0.071
GCATTAAC	0.0905 ± 0.054
GGTATAAC	-0.05 ± 0.045
TCGGGGCA	-0.234 ± 0.0057
TCATCGGA	-0.237 ± 0.0091
CCAGAAGG	0.0181 ± 0.0083

Reference: the supplement of paper PMC4166925
